# Test results published in a collection of fitness landscapes (doi:10.1126/science.1257360).
# Some of the results follow.
# B1: PhoQ; a variant is named by its letters at X, in order, P23837 (parent)
# chain: MKKLLRLFFPLSLRVRFLLATAAVVLVLSLAYGMVALIGYSVSFDKTTFRLLRGESNLFYTLAKWENNKLHVELPENIDKQSPTMTLIYDENGQLLWAQRDVPWLMKMIQPDWLKSNGFHEIEADVNDTSLLLSGDHSIQQQLQEVREDDDDAEMTHSVAVNVYPATSRMPKLTIVVVDTIPVELKSSYMVWSWFIYVLSANLLLVIPLLWVAAWWSLRPIEALAKEVRELEEHNRELLNPATTRELTSLVRNLNRLLKSERERYDKYRTTLTDLTHSLKTPLXXLQXXLRSLRSEKMSVSDAEPVMLEQISRISQQIGYYLHRASMRGGTLLSRELHPVAPLLDNLTSALNKVYQRKGVNISLDISPEISFVGEQNDFVEVMGNVLDNACKYCLEFVEISARQTDEHLYIVVEDDGPGIPLSKREVIFDRGQRVDTLRPGQGVGLAVAREITEQYEGKIVAGESMLGGARMEVIFGRQHSAPKDE
# Variants of: B1
# Assay: enrichment ratio after two sorts for PhoP signalling (ratio (wild type AVST 3.29)); higher = more functional
# Details: with PhoP (E. coli)
row,Variant,enrichment ratio
1,DYRA,≤ 0.25
2,ATKQ,≤ 0.25
3,WQCQ,≤ 0.25
4,AVIM,2.23
5,WYVC,≤ 0.25
6,VKSL,≤ 0.25
7,PESQ,≤ 0.25
8,DKPL,≤ 0.25
9,IVNW,≤ 0.25
10,HHRQ,≤ 0.25
11,HTFR,≤ 0.25
12,LRVI,≤ 0.25
13,MFCD,≤ 0.25
14,WCVP,≤ 0.25
15,SCLS,9.62
16,TVDQ,≤ 0.25
17,DPNP,≤ 0.25
18,NEEL,≤ 0.25
19,LPCS,≤ 0.25
20,ELLQ,≤ 0.25
21,MLYE,≤ 0.25
22,PFIM,0.672
23,VYTP,≤ 0.25
24,QLGH,≤ 0.25

row,Variant,enrichment ratio
1,EMVY,≤ 0.25
2,RVVY,≤ 0.25
3,FFRT,≤ 0.25
4,DDDK,≤ 0.25
5,DFNL,≤ 0.25
6,WVPL,≤ 0.25
7,ICFD,≤ 0.25
8,KIPY,≤ 0.25
9,LKEA,≤ 0.25
10,ANVY,≤ 0.25
11,YPMC,≤ 0.25
12,INGP,≤ 0.25
13,MLED,≤ 0.25
14,KTVC,≤ 0.25
15,FNLL,6.59
16,FCNH,≤ 0.25
17,ATPG,≤ 0.25
18,WEMM,≤ 0.25
19,YKNV,≤ 0.25
20,TQHH,3.33
21,VRKY,≤ 0.25
22,TNPN,≤ 0.25
23,FEFQ,≤ 0.25
24,LKME,≤ 0.25

row,Variant,enrichment ratio
1,SAKA,≤ 0.25
2,GFCG,≤ 0.25
3,AMFL,≤ 0.25
4,NRTH,≤ 0.25
5,REKT,≤ 0.25
6,WNNL,≤ 0.25
7,NYES,≤ 0.25
8,FYQD,≤ 0.25
9,LHFH,≤ 0.25
10,RGYR,≤ 0.25
11,TISM,27.4
12,VVAS,≤ 0.25
13,DWRP,≤ 0.25
14,WSEP,≤ 0.25
15,DGDS,≤ 0.25
16,QTCT,≤ 0.25
17,TMCG,15
18,PNRI,≤ 0.25
19,EYKA,≤ 0.25
20,HAIF,≤ 0.25
21,DSHQ,≤ 0.25
22,NHCM,≤ 0.25
23,SNKP,≤ 0.25
24,NGLT,≤ 0.25

row,Variant,enrichment ratio
1,NQYE,≤ 0.25
2,VRAP,≤ 0.25
3,FGSF,≤ 0.25
4,NRYE,≤ 0.25
5,FVSG,≤ 0.25
6,HYKP,≤ 0.25
7,FKAF,≤ 0.25
8,SNEC,≤ 0.25
9,RRTP,≤ 0.25
10,INYL,≤ 0.25
11,EDMM,≤ 0.25
12,EMTS,≤ 0.25
13,HGEF,≤ 0.25
14,MGGV,7.12
15,RHVY,≤ 0.25
16,YGGR,≤ 0.25
17,MEEP,≤ 0.25
18,IYKH,≤ 0.25
19,YMVS,≤ 0.25
20,RAVW,≤ 0.25
21,GKHI,≤ 0.25
22,QNIM,≤ 0.25
23,WYCD,≤ 0.25
24,YTKG,≤ 0.25

row,Variant,enrichment ratio
1,TKML,19.2
2,GSEC,≤ 0.25
3,VSEY,≤ 0.25
4,PDRW,≤ 0.25
5,WWLQ,≤ 0.25
6,TDMN,5.19
7,EFGH,≤ 0.25
8,NKNS,≤ 0.25
9,LGFQ,9.07
10,HRCR,≤ 0.25
11,GNGI,≤ 0.25
12,NNWR,≤ 0.25
13,NVFR,0.485
14,ANIH,≤ 0.25
15,LWWT,≤ 0.25
16,GHYD,≤ 0.25
17,DCHN,≤ 0.25
18,RNWG,≤ 0.25
19,YHNM,≤ 0.25
20,WTQF,≤ 0.25
21,YVSP,≤ 0.25
22,MFMR,≤ 0.25
23,QSTH,≤ 0.25
24,QMTC,≤ 0.25

row,Variant,enrichment ratio
1,NPKH,≤ 0.25
2,MRAG,≤ 0.25
3,ELIH,≤ 0.25
4,YTEQ,≤ 0.25
5,HWMI,≤ 0.25
6,FPWF,≤ 0.25
7,MPCP,≤ 0.25
8,PKVD,≤ 0.25
9,WGLY,≤ 0.25
10,VSLQ,10.1
11,DYWW,≤ 0.25
12,YIGG,0.444
13,YCCQ,0.731
14,KIQI,≤ 0.25
15,WHTE,≤ 0.25
16,HRAS,≤ 0.25
17,LVSH,≤ 0.25
18,TLKT,≤ 0.25
19,SEQT,≤ 0.25
20,KALA,≤ 0.25
21,MCFI,≤ 0.25
22,NSYA,≤ 0.25
23,GCEF,≤ 0.25
24,TRHS,≤ 0.25

row,Variant,enrichment ratio
1,KAIE,≤ 0.25
2,TAWR,≤ 0.25
3,ADWG,≤ 0.25
4,KCKY,≤ 0.25
5,TGAF,4.1
6,RLCW,≤ 0.25
7,MTAC,1.84
8,QTDY,≤ 0.25
9,WMWA,≤ 0.25
10,LAKQ,≤ 0.25
11,ERLM,≤ 0.25
12,AKQA,≤ 0.25
13,MEKR,≤ 0.25
14,AERC,≤ 0.25
15,KNSH,≤ 0.25
16,TMAD,≤ 0.25
17,LQNI,≤ 0.25
18,PIRE,≤ 0.25
19,HGAS,≤ 0.25
20,KEGF,≤ 0.25
21,LRWG,≤ 0.25
22,RAKI,≤ 0.25
23,KTRV,≤ 0.25
24,IQLN,≤ 0.25

row,Variant,enrichment ratio
1,RTGT,≤ 0.25
2,DIFG,≤ 0.25
3,EFWW,≤ 0.25
4,QGTS,≤ 0.25
5,LEEF,≤ 0.25
6,PYRE,≤ 0.25
7,NMKT,≤ 0.25
8,NLNA,≤ 0.25
9,VYAA,≤ 0.25
10,LDAK,≤ 0.25
11,GKLY,≤ 0.25
12,QLWQ,11.9
13,IPII,≤ 0.25
14,STYW,≤ 0.25
15,YHRY,≤ 0.25
16,TCRF,≤ 0.25
17,AWFN,≤ 0.25
18,ADGD,≤ 0.25
19,FMYL,≤ 0.25
20,IYWE,≤ 0.25
21,TGVY,2.88
22,FQRS,≤ 0.25
23,EMKS,≤ 0.25
24,KAPL,≤ 0.25

row,Variant,enrichment ratio
1,INTD,≤ 0.25
2,RSES,≤ 0.25
3,SKWW,≤ 0.25
4,DPML,≤ 0.25
5,VRQR,≤ 0.25
6,HMNS,≤ 0.25
7,SCHW,≤ 0.25
8,NSWM,≤ 0.25
9,IDNG,≤ 0.25
10,PFFQ,≤ 0.25
11,KPPA,≤ 0.25
12,LVMA,≤ 0.25
13,QETE,≤ 0.25
14,IWVF,≤ 0.25
15,KNPM,≤ 0.25
16,KHYD,≤ 0.25
17,KDFQ,≤ 0.25
18,NWYS,≤ 0.25
19,MCWG,4.16
20,MPCW,≤ 0.25
21,SSPR,≤ 0.25
22,MPIN,≤ 0.25
23,LHCK,≤ 0.25
24,PYPP,≤ 0.25

row,Variant,enrichment ratio
1,LSNG,≤ 0.25
2,IYRG,≤ 0.25
3,YEIM,4.3
4,IKRD,≤ 0.25
5,EAYH,≤ 0.25
6,FKQH,≤ 0.25
7,SVEF,≤ 0.25
8,ATRF,≤ 0.25
9,DECS,≤ 0.25
10,WSWM,≤ 0.25
11,TMRH,≤ 0.25
12,DMFL,≤ 0.25
13,FNHA,≤ 0.25
14,QSSD,≤ 0.25
15,TCWA,0.276
16,NVTR,≤ 0.25
17,YGIS,≤ 0.25
18,SHCE,5.47
19,YDNM,≤ 0.25
20,KLNG,≤ 0.25
21,SVHP,≤ 0.25
22,FIFI,≤ 0.25
23,QNYV,≤ 0.25
24,SWNM,≤ 0.25

row,Variant,enrichment ratio
1,IQKS,≤ 0.25
2,WIWQ,≤ 0.25
3,QQAF,≤ 0.25
4,FECR,≤ 0.25
5,MSDK,≤ 0.25
6,PQQH,≤ 0.25
7,QIDE,≤ 0.25
8,SYHA,≤ 0.25
9,KRPH,≤ 0.25
10,DFNW,≤ 0.25
11,IMCA,≤ 0.25
12,SFAF,≤ 0.25
13,DAEN,≤ 0.25
14,NRKK,≤ 0.25
15,GRRA,≤ 0.25
16,TPDK,≤ 0.25
17,LNFY,≤ 0.25
18,QNMF,≤ 0.25
19,QPWF,≤ 0.25
20,NMMK,≤ 0.25
21,YGDV,≤ 0.25
22,PEMR,≤ 0.25
23,QIDM,≤ 0.25
24,FFWP,≤ 0.25

row,Variant,enrichment ratio
1,NLRR,≤ 0.25
2,MWND,≤ 0.25
3,SWFW,≤ 0.25
4,VTVF,≤ 0.25
5,CPFF,≤ 0.25
6,RPKH,≤ 0.25
7,HGMW,≤ 0.25
8,HDPA,≤ 0.25
9,MTGS,2.94
10,WWVH,≤ 0.25
11,MWPY,≤ 0.25
12,YYDS,≤ 0.25
13,DHYM,≤ 0.25
14,VGKL,≤ 0.25
15,INRP,≤ 0.25
16,DTVM,≤ 0.25
17,NTSL,≤ 0.25
18,TYHA,≤ 0.25
19,PRHV,≤ 0.25
20,ELKV,≤ 0.25
21,IRSH,≤ 0.25
22,NHRC,≤ 0.25
23,HFQL,≤ 0.25
24,VVGN,≤ 0.25

row,Variant,enrichment ratio
1,GVEP,≤ 0.25
2,IVHQ,≤ 0.25
3,RWMA,≤ 0.25
4,PCEH,≤ 0.25
5,LQYE,≤ 0.25
6,NYCH,≤ 0.25
7,WQRT,≤ 0.25
8,VGRH,≤ 0.25
9,WLVV,≤ 0.25
10,MINS,≤ 0.25
11,FGCM,2.78
12,NNEC,≤ 0.25
13,QRNC,≤ 0.25
14,DQRH,≤ 0.25
15,DIPR,≤ 0.25
16,LDND,≤ 0.25
17,PWPN,≤ 0.25
18,HIGD,≤ 0.25
